The results in this text go back to the supplement of paper PMC7826260.

This is one part of the list. The data describe in vitro nicking of single-stranded DNA by Rep domains at 3 µM enzyme and 37 °C for 1 h; the strands have 90 letters, of which the middle is given. The score is log2 (uncut reads / reads without enzyme); more negative means more cut, near 0 not cut, and no call is made. Shares of all reads are compared; uncut strands gain when others are lost, and binding without cutting may add a little.

Holding throughout (test): uncleaved DNA left, log2 of reads against the no-enzyme library (log2 ratio); higher = less cleavage (more negative = more Rep cleavage of the k-mer); sequences stand for … in CTCGTCCG…ACCGGAGA
The test system of test [1] is T1, Rep nickase domain of Muscovy duck circovirus.
T1 sequence (residues 1-111, tag not shown): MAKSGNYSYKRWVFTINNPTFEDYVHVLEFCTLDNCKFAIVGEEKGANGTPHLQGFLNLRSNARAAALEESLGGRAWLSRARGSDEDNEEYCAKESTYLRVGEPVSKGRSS
How it is done: (§1)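 A pool of 90-nt single-stranded DNAs with seven random bases just before the constant AC of the nick site (name = the seven bases) was cut by 3 µM recombinant His6-SUMO-tagged Rep nickase domain (300 nM DNA, 50 mM HEPES pH 8.0, 50 mM NaCl, 1 mM MnCl2, 1 h, 37 °C, three replicates). Uncut DNA was amplified and sequenced.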

Test [2] has as its system T2, Rep nickase domain of banana bunchy top virus.
T2 sequence (residues 1-94, tag not shown): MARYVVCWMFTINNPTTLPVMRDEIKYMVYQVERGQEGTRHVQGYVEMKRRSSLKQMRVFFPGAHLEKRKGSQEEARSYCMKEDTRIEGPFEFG
Here is the method:
as §1

Test [3] deals with T3, Rep nickase domain of cabbage leaf curl virus.
T3 sequence (residues 1-116, tag not shown): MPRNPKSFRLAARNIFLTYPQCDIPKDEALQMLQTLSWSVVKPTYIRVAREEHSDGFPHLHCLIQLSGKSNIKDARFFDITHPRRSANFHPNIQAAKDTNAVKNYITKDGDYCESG
Here is the method:
as §1

The subject of test [4] is T4, Rep nickase domain of chickpea chlorotic dwarf virus.
T4 sequence (residues 1-124, tag not shown): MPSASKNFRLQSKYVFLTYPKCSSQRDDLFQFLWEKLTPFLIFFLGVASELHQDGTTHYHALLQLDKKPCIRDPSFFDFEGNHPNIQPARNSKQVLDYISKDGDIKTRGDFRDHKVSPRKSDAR
How it is done:
as §1

Test [5] has as its system T5, Rep nickase domain of faba bean necrotic yellows virus.
T5 sequence (residues 1-98, tag not shown): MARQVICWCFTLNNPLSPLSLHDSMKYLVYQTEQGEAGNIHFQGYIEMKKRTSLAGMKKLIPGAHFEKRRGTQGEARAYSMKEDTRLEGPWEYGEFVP
How it is done: as §1
The subject of test [6] is T6, Rep nickase domain of maize striate mosaic virus.
T6 sequence (residues 1-117, tag not shown): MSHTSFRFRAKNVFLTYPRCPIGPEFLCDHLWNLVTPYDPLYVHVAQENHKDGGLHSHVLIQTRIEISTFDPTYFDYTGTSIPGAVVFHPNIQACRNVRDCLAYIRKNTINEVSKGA
Here is the method: as §1
The test system of test [7] is T7, Rep nickase domain of porcine circovirus 2.
T7 sequence (residues 2-116, tag not shown): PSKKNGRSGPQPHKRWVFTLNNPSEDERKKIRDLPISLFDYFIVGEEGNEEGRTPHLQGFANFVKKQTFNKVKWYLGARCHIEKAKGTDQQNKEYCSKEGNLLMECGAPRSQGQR
Here is the method:
as §1

Test [8] relates to T8, Rep nickase domain of tomato yellow leaf curl virus.
T8 sequence (residues 1-136, tag not shown): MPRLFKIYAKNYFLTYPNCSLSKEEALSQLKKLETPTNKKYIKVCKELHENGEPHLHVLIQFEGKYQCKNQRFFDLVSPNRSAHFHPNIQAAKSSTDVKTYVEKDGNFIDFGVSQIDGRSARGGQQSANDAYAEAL
How it is done: as §1
Test [9] concerns T9, Rep nickase domain of wheat dwarf virus.
T9 sequence (residues 1-137, tag not shown): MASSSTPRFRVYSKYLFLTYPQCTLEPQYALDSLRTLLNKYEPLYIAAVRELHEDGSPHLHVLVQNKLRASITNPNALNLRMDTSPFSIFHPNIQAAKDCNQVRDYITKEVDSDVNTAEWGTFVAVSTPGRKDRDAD
Here is the method: as §1

For GTAAGTG, the “uncleaved DNA left (log2)” value was 0.0375 in test [1]; 0.0349 in test [2]; -0.452 in test [3]; -0.61 in test [4]; 0.0634 in test [5]; -0.711 in test [6]. Further, the “uncleaved DNA left (log2)” value in [7] is 0.179; in [8] it was 0.0421; in [9], -0.0174.

As to CATAGTA, the “uncleaved DNA left (log2)” value in test [1] was -0.103; in test [2], -0.113; in [3] it was -0.128; in test [4], -1.85; in test [5], 0.0851; in test [6], -0.948. For the same sequence, the “uncleaved DNA left (log2)” value was -0.16 in test [7], -0.0574 in test [8] and -0.0179 in test [9].

On to ATGGGTC, for which the “uncleaved DNA left (log2)” value was -0.0431 in test [1]; -0.0964 in test [2]; 0.232 in test [3]; 0.607 in test [4]; -0.0986 in test [5]; 0.731 in test [6]. The “uncleaved DNA left (log2)” value in test [7] was 0.101; in test [8], -0.121; in [9] it was -0.135.

With TGATGAT, the “uncleaved DNA left (log2)” value in [1] was -0.227; in [2], 0.038; in [3], 0.283; in test [4] it was 0.692; in [5], 0.0399; in [6], 1.59. The entries for the “uncleaved DNA left (log2)” value in test [7], in [8] and in [9] were -0.568, -0.0114 and 0.0389, respectively.

Take AACGCGC: the “uncleaved DNA left (log2)” value in test [1] is -0.0105; in test [2] it was 0.00395; in test [3] it was -0.764; in [4], -0.0446; in [5], 0.0932; in test [6] it was -0.84. Further, the “uncleaved DNA left (log2)” value in test [7] was 0.0902; in [8], -0.0917; in [9], -0.198.

On to GCCGGCG, for which the “uncleaved DNA left (log2)” value was 0.15 in test [1]; 0.125 in [2]; -0.364 in [3]; 0.851 in [4]; 0.111 in [5]; 0.252 in test [6]. The “uncleaved DNA left (log2)” value stood at 0.248 in test [7], 0.0693 in test [8] and 0.0814 in [9].

As to AGTCTAA, the “uncleaved DNA left (log2)” value in [1] was 0.0535; in test [2] it was 0.022; in test [3], 0.0794; in test [4], 0.0722; in test [5], -0.0332; in test [6], 0.0423. Besides, the “uncleaved DNA left (log2)” value is -1.45 in test [7], 0.0479 in test [8] and 0.0661 in test [9].

For GCGATAG, the “uncleaved DNA left (log2)” value in [1] is 0.0373; in [2], -0.00548; in test [3], -0.0379; in test [4] it was 0.495; in test [5] it was 0.023; in [6] it was 0.499. Further, the “uncleaved DNA left (log2)” value is 0.0776 in test [7], -0.0131 in test [8] and 0.00566 in [9].

Consider CCTGCAC, for which the “uncleaved DNA left (log2)” value in test [1] is -0.135; in test [2], -0.0929; in [3], -0.558; in test [4], -0.73; in test [5], -0.134; in test [6], -0.923. The “uncleaved DNA left (log2)” value in test [7] is 0.076; in [8], -0.063; in test [9], -0.235.

For the sequence ATTATAG, the “uncleaved DNA left (log2)” value is -0.0383 in [1]; 0.0511 in test [2]; -0.802 in test [3]; -0.443 in test [4]; 0.0305 in test [5]; -1.24 in [6]. In addition, the “uncleaved DNA left (log2)” value in test [7] was 0.143; in [8], 0.103; in [9] it was -0.0418.

Consider CTGGTTA, for which the “uncleaved DNA left (log2)” value is -0.115 in test [1]; -0.12 in test [2]; -0.173 in [3]; -0.891 in test [4]; -0.0554 in test [5]; -0.179 in test [6]. Further, the “uncleaved DNA left (log2)” value in test [7] is -0.0202; in test [8], -0.21; in test [9], -0.132.

With AAGTGTC, the “uncleaved DNA left (log2)” value in test [1] was 0.0416; in [2], -0.0863; in test [3], -0.00803; in test [4] it was -0.13; in test [5], -0.0498; in [6], -0.2. Also, the “uncleaved DNA left (log2)” value was -2.6 in test [7], -0.0441 in [8] and 0.0746 in test [9].

With GTATCAT, the “uncleaved DNA left (log2)” value in [1] is -0.0627; in [2] it was 0.159; in test [3], 0.399; in [4], 1; in test [5] it was 0.0334; in test [6] it was 1.88. Also, the “uncleaved DNA left (log2)” value in test [7] was 0.071; in test [8], 0.0821; in test [9], 0.228.

Turning to AACTCGG, the “uncleaved DNA left (log2)” value in test [1] is 0.112; in test [2] it was 0.039; in test [3] it was 0.536; in test [4] it was 1.39; in test [5] it was 0.0721; in [6], 1.43. In addition, the “uncleaved DNA left (log2)” value in test [7] turned out to be 0.104; in test [8] it was 0.0424; in test [9], 0.146.

For ATCGGTT, the “uncleaved DNA left (log2)” value in test [1] was determined as 0.00202; in test [2], 0.0211; in test [3], 0.237; in test [4], 0.135; in test [5], 0.0203; in test [6] it was 0.969. The figures for the “uncleaved DNA left (log2)” value in test [7], in test [8] and in [9] were 0.118, 0.0608 and 0.106, respectively.
